Results taken from PubChem BioAssay AID686971 (National Center for Advancing Translational Sciences (NCATS), 2013).
Out of some 360,000 compounds screened, about 7,500 (2.1%) were called active. This list was built around the results that the source calls inconclusive (neither active nor inactive); the mix of calls is not that of the screen. Calls come from the whole dose curve; as a rule, active = well fitted cell-killing curve with a large enough effect; inconclusive = small, poorly fitted or top-dose-only effect, or effect the other way, or another doubt; inactive = no such curve, though single readings can be large or run the other way. No potency is given beside an inconclusive call; the fits are too rough.

Assay: qHTS for induction of synthetic lethality in tumor cells producing 2HG: qHTS for the HT-1080-IDH1KD cell line;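 for activity, negative = toxicity: 0% = DMSO wells and -100% = cell-free medium wells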
Conditions: HT-1080 IDH1 knockdown viability, ATP luminescence, 48 h; activity, negative = toxicity: at 46.1 µM (top of the series) unless noted
In short: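 HT-1080-IDH1KD cells (IDH1 knocked down), 750/well in RPMI with 5% FBS, treated with compound 48 h at 37 degrees C. Viability by CellTiter-Glo luminescence, normalised to DMSO and no-cell wells; concentration-response curves classed.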
Potency is the fitted concentration of half-maximal effect; tags give direction and shape of the fitted curve.

Q: With CCc1cc(C(=O)N/N=C/c2ccc(O)cc2O)c2ccccc2n1 as the molecule, how does the Potency read?
A: inconclusive [cytotoxic, full curve]

Q: Which Potency does the source give for Cc1cc(NCc2ccccc2)nc2ccccc12 here?
A: inconclusive [cytotoxic, single point]

Q: For C/C=N\NC(=O)CNC(=O)CNC(=O)c1ccccc1, which activity, negative = toxicity is on record?
A: inconclusive: 32.5%

Q: Which Potency does the source give for COc1ccc(-c2cn3c(C)c(C(=O)N4CCc5ccccc5C4)sc3n2)cc1 here?
A: inconclusive [cytotoxic, single point]

Q: With O=C(Nc1nc2cc3c(cc2s1)OCCO3)c1ccc([N+](=O)[O-])o1 as the molecule, how does the Potency read?
A: inconclusive [cytotoxic, partial curve]

Q: For NC(=S)NNC(=S)Nc1ccccc1, which Potency is on record?
A: inactive

Q: With O=C(NCCc1ccccc1)C1Cc2c(-c3ccc4c(c3)OCO4)ccnc2O1 (stereo unspecified) as the molecule, how does the Potency read?
A: inconclusive [cytotoxic, partial curve]

Q: With Cn1cnc([N+](=O)[O-])c1S(=O)(=O)Oc1ccc(Cl)cc1 as the molecule, how does the Potency read?
A: active: 16.4 µM

Q: For COc1cccc(C(C)(O)c2nc(-c3cccc(C#N)c3)cs2)c1 (stereo unspecified), which Potency is on record?
A: inactive

Q: Which Potency does the source give for CCCCCCCCC/C(=N\O)c1ccccn1 here?
A: inconclusive [cytotoxic, single point]

Q: With Fc1ccc(N=C2NN=C(c3cc(F)ccc3F)CS2)cc1 as the molecule, how does the Potency read?
A: inconclusive [cytotoxic, single point]

Q: For CCOC(=O)C1=C(N)c2ccccc2CC1C(C)C (stereo unspecified), which Potency is on record?
A: inconclusive [cytotoxic, single point]

Q: With Fc1ccc(NC(=S)NCc2ccccc2)cc1 as the molecule, how does the Potency read?
A: inactive

Q: With CC(C)OP(=O)(OC(C)C)C1(O)C(=O)Nc2ccccc21 (stereo unspecified) as the molecule, how does the Potency read?
A: inactive

Q: Which Potency does the source give for CC(C(=O)Nc1ccccc1-c1ccccc1)N(C)Cc1nc2ccccc2c(=O)[nH]1 (stereo unspecified) here?
A: active: 23.1 µM

Q: Which Potency does the source give for O=C1NC(=O)/C(=C/c2cc3c(cc2Br)OCO3)S1 here?
A: inactive

Q: Which Potency does the source give for O=C(/C=C/c1cccs1)Nc1sc2c(c1C(=O)O)CCCC2 here?
A: inconclusive [cytotoxic, single point]

Q: Which Potency does the source give for COc1ccc([C@@H]2[C@@H](C)N(c3ccccc3)c3ccccc3C(=O)N2Cc2ccccc2)cc1 here?
A: inconclusive [cytotoxic, partial curve]

Q: With O=C(N/N=C(\Cc1ncc[nH]1)c1ccccc1)c1cccnc1 as the molecule, how does the Potency read?
A: inconclusive [cytotoxic, full curve]

Q: Which Potency does the source give for Nc1c(C(=O)Nc2nccs2)sc2nc(-c3cccs3)cc(C(F)(F)F)c12 here?
A: inconclusive [cytotoxic, partial curve]

Q: For CCOC(=O)C1=C(CC)Nc2ccccc2N/C1=N\S(=O)(=O)c1ccc2ccccc2c1, which Potency is on record?
A: active: 14.6 µM

Q: For COc1cccc(OC)c1C(=O)OCC(=O)N1CCC(Cc2ccccc2)CC1, which Potency is on record?
A: inactive

Q: With c1ccc2c(NCCc3c[nH]c4ccccc34)c3ccccc3nc2c1 as the molecule, how does the Potency read?
A: inconclusive [cytotoxic, single point]

Q: For COc1ccccc1[C@H]1C(c2cccc(Cl)c2)=NN(c2ccccc2)[C@@H]1CO, which Potency is on record?
A: inconclusive [cytotoxic, single point]

Q: Which activity, negative = toxicity does the source give for CN(C)C=NC(=O)c1ccc(N2CCN(c3ncc(C(F)(F)F)cc3Cl)CC2)cc1 here?
A: inconclusive: -30.3% [cytotoxic]

Q: For C/C(=N\NC(=O)c1ccc(Cl)c(Cl)c1)c1cccc(NC(=O)C(C)C)c1, which Potency is on record?
A: inactive

Q: For O=C(C1=C[C@@H](c2ccc(C(F)(F)F)cc2)C[C@@H](OCc2ccc(CO)cc2)O1)N1CCN(Cc2ccccc2)CC1, which Potency is on record?
A: inactive

Q: With CC1CCC(n2c(=S)[nH]c3ccccc3c2=O)CC1 (stereo unspecified) as the molecule, how does the Potency read?
A: inconclusive [cytotoxic, single point]

Q: With CCCc1cc(=O)n2[nH]cc(-c3ccc(Cl)cc3)c2n1 as the molecule, how does the Potency read?
A: inconclusive [cytotoxic, partial curve]

Q: With Cc1occc1C(=O)NNC(=O)c1nn(C)c(=O)c2ccccc12 as the molecule, how does the Potency read?
A: inconclusive [rising, single point]

Q: With O=C(NC(=S)Nc1cccc2c(O)cccc12)c1ccco1 as the molecule, how does the Potency read?
A: inconclusive [cytotoxic, single point]

Q: With CC(=O)c1ccc(-n2c(=O)[nH]c(=O)c3c(N)c(C(=O)c4ccc(Cl)cc4)sc32)cc1 as the molecule, how does the Potency read?
A: active: 23.1 µM

Q: For CCCn1c(C2CCCN2c2nc(-c3ccc(C)cc3)cs2)nc2ccccc21 (stereo unspecified), which Potency is on record?
A: inconclusive [cytotoxic, single point]

Q: Which Potency does the source give for N#CC1=C(Nc2ccccc2Cl)SC2(CCCC2)NC1=O here?
A: inconclusive [cytotoxic, single point]

Q: Which Potency does the source give for CCOc1ccc(NC(=O)CC(=O)Nc2ccc(OCC)cc2)cc1 here?
A: inactive

Q: For C[C@H](CO)N1C[C@H](C)[C@@H](CN(C)C(=O)Nc2ccc3c(c2)OCO3)Oc2c(NC(=O)Nc3ccc(C(F)(F)F)cc3)cccc2C1=O, which Potency is on record?
A: inconclusive [cytotoxic, single point]

Q: With Cc1cc(OCCCN2CCC(C(O)(c3ccccc3)c3ccccc3)CC2)ccc1Br as the molecule, how does the Potency read?
A: inconclusive [cytotoxic, single point]

Q: With Cc1ccc(NC(=O)Cc2ccc3c(c2)OCCO3)cc1S(=O)(=O)N1CCCCC1 as the molecule, how does the Potency read?
A: inactive

Q: Which Potency does the source give for CCCCNc1c(C(=O)OCC)c(C)nc2c1cnn2CC here?
A: inactive

Q: Which Potency does the source give for C=CCOCC(O)Cn1c(N2CCCC2)nc2c1c(=O)[nH]c(=O)n2C (stereo unspecified) here?
A: inactive

Q: For CN(c1ccccc1)c1ccc(/C=C/[N+](=O)[O-])cc1, which Potency is on record?
A: active: 5.8 µM

Q: With COc1ccccc1NC(=O)CSc1nnc(COc2ccccc2OC)n1C as the molecule, how does the Potency read?
A: inactive

Q: With O=C(CSc1nnc(-c2cccs2)n1-c1ccccc1)N1CCCc2ccccc21 as the molecule, how does the Potency read?
A: inconclusive [cytotoxic, single point]

Q: For O=C1C=CC(=O)N1c1ccc2c(c1)C(NC(=O)C(F)(F)F)c1ccccc1-2 (stereo unspecified), which Potency is on record?
A: inconclusive [cytotoxic, single point]

Q: For C/C(=N\NC(=O)c1c(Br)c(C)nn1C)c1ccc(NC(=O)C(C)Oc2ccc(Cl)cc2C)cc1 (stereo unspecified), which Potency is on record?
A: inconclusive [cytotoxic, single point]

Q: Which Potency does the source give for COc1ccccc1C(=O)Nc1ccc2c(c1)nc(CCNC(=O)c1ccccc1)n2C here?
A: active: 4.11 µM
